Measurements: patent US20190225650A1, “PEPTIDOMIMETIC MACROCYCLES AND USE THEREOF IN REGULATING HIF1ALPHA” (AILERON THERAPEUTICS, INC., priority 2013, published 2019)
For some assays here: Not every detail of the peptide structures is certain; ends, links or a residue may be inferred. For at least one compound, name, drawing or mass did not settle the structure. Bridge positions count the residues as written; N and C are the ends. Square brackets hold non-standard residues; d marks the D form. Peptide text beside a SMILES is read from it. * marks the point of attachment. 5FAM = O=C1OC2(c3ccc(O)cc3Oc3cc(O)ccc32)c2ccc(C(=O)*)cc21; S5 = C=CCCC[C@](C)(N)C(=O)O; Nle = CCCC[C@H](N)C(=O)O; βAla = NCCC(=O)O

Tests used:
HRE-bla ME-180 cells [1] = assay: Reporter gene assay (HRE-bla ME-180 HIF reporter, GeneBLAzer); assay type: cell-based, human; details: for EC50: 24 hour normoxia
Experimental: The following reagents were used:
• DMEM+GutaMAX: (#10569044, Invitrogen) • Black clear bottom plates: (#3603, Costar) • HRE-bla-ME-180 cell line: (#K1644, Invitrogen) • Gene-Blazer reagent & protocol: (#K1096, Invitrogen) • Plate reader: Biotek Synergy 2 • Chetomin: (C9623, Sigma)
4 hours prior to experiment: HRE-bla ME-180 cells were seeded at a density of 20,000 cells/well in a volume of 180 μl in black clear bottom 96-well plates. 180 μl of assay medium was added to the cell-free control wells. Incubation was conducted at 37° C., 5% CO2 for 4 hours.
Diluted chetomin was used as a positive control. Chetomin was diluted in 100% DMSO to a 10 mM stock concentration. A 1 mM stock of chetomin was prepared in 100% DMSO. Then the 1 mM chetomin stock was serially diluted in 1:4 in 100% DMSO. Finally, 50, 12.5, 3.125, 0.78, 0.2, 0.05 μM stock of chetomin in 5% DMSO/water were prepared by adding 114 μL water+6 μL chetomin in DMSO.
Test peptides were diluted before use. The test peptides were diluted in 100% DMSO to a 10 mM stock concentration. Then each 10 mM peptide stock was diluted in 1:3 in 100% DMSO. Finally, 300, 100, 33.3, 11.1, 3.7, 1.2 μM stock of each peptide in 5% DMSO/water were prepared by adding 129.2 μL water+4 μL peptide in DMSO.
20 μl of peptide, chetomin dilution, or DMSO/water control were added to the appropriate wells of a plate to achieve 200 μL final volumes in 0.3% DMSO/media. The plate was first incubated for 18-20 hours in normoxia incubator (37° C. in humidified 5% CO2, 20% O2 atmosphere). Then the plate was transferred to hypoxia incubator for 24 hours (37° C. in humidified 5% CO2, 1% O2 atmosphere)
6× LiveBLAzer™-FRET B/G (CCF4-AM) Substrate Mixture was prepared according to CellSensor™ HRE-bla ME-180 Cell-based Assay Protocol (Invitrogen) and added into each well. Solution A (CCF4-AM) was reconstituted in DMSO to a working concentration of 1 mM, divided in aliquots, and stored at −20° C. The 6× LiveBLAzer-FRET B/G (CCF4-AM) Substrate mixture was prepared by mixing 6 μl of Solution A, 60 μl of Solution B, and 934 μl Solution C.
The plates were removed from incubator and equilibrated to RT for a few minutes. Then 20 μl of 6× Substrate mixture was added to each well. The plates were then incubated at room temperature for 3 hr in the dark and read at 409 Ex/460Em and 409Ex/530Em using the “GeneBlazer-Tungsten with export” program on the Synergy 2.
The average percentage of maximum inhibition was obtained by comparing the peptide treated cells (30 μM) to DMSO vehicle control treated cells. The results are shown in the columns “ME-180 HIF Reporter EC50 (μM) −24 hr normoxia” and “18 h Avg % max inhibition at top conc (HIF Rptr-24 hrsnormoxia) (μM)” of Table 6.

[2] = test system: HIF1α targets ANGPTL4, CA9 and ALDOC in ME-180 cells; assay: qRT-PCR of HIF1α target genes; assay type: cell-based, human; details: ME-180 cervical cancer cells, FIG. 1
[3] = test system: Carbonic anhydrase 9 (CA9) in ME-180 cells; assay: Western blot analysis of CA9; assay type: cell-based, human; details: hypoxia 24 hrs, FIG. 2
HRE-bla ME-180 cells [4] = assay: Cell proliferation assay (viability, MTT, 1% FBS); assay type: cell-based, human
Experimental: The human cervical cell line HRE-Bla ME-180 was obtained from Invitrogen. 2×10^4 ME-180 cells were plated in 96-well plates (costar) in Opti-MEM plus 1% FBS (Invitrogen). After 4 hr, cells were pretreated with chetomin, peptide or 0.5% DMSO (final concentration in media) vehicle control for 16 hr under normoxia (21% O2); then incubation continued under normoxia or hypoxia (1% O2) using a hypoxia incubator (Thermo Forma model). Viable cell numbers were quantified using CellTiter 96 Non-Radioactive Cell Proliferation kit (Promega, G4100). The results are presented in the column “Viability 1% FBS AVG (MTT V3-24 hr Normoxia) (μM)” of Table 6.

[5] = test system: PC-3 human prostate carcinoma xenograft; assay type: in vivo, athymic nude mice; details: FIG. 4
[6] = biological target: T1, flag-tagged HIF1α (AA 786-826) / His6-tagged p300 (AA 323-423) complex (Homo sapiens, UniProt Q09472); assay: HIF1α p300 displacement assay (TR FRET, +CHAPS); assay type: binding; details: read-out: IC50 (nM) (HIF1α_p300 Displacement + CHAPS)
T1 construct: His6-tagged p300 (AA 323-423); made in house; host or cells: E. coli (pETDuet vector)
Outline: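 The co-expressed flag-HIF1α (786-826)/His6-p300 (323-423) complex, purified from E. coli with 0.1 mM ZnSO4, was used at 300 nM final with competitor peptides for 1 h at room temperature. Buffer was 150 mM NaCl, 20 mM HEPES pH 7.4, 7.5 mM CHAPS and 1 mM DTT. Anti-Flag-K (0.5 μM) and anti-His-D2 (4 nM) were then added for 2 h, and IC50s were fitted from the TR-FRET ratio.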

T1 sequence (Q09472 323-423, one chain of several): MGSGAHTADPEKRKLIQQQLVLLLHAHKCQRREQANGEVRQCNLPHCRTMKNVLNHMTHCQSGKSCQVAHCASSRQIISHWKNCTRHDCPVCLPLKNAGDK

Compound | EC50 (HRE-bla ME-180 cells [1]) [µM] | IC50 [6] [nM] | 18 h Avg % max inhibition at top conc (HIF Rptr-24 hrs normoxia) (μM) (HRE-bla ME-180 cells [1]) | inhibition of known HIF1α targets ANGPTL4, CA9 and ALDOC (gene expression) [2] | protein level of Carbonic anhydrase 9 (CA9) [3] | Viability 1% FBS AVG (MTT V3-24 hr Normoxia) (μM) (HRE-bla ME-180 cells [4]) | tumor growth [5]
CCCC[C@H](NC(=O)[C@H](CC(C)C)NC(=O)[C@@H](NC(=O)[C@H](CCC(=O)O)NC(=O)[C@H](CCC(=O)O)NC(=O)[C@H](CC(=O)O)NC(=O)[C@@H](NC(=O)[C@H](Cc1ccccc1)NC(C)=O)[C@@H](C)CC)C(C)C)C(=O)N[C@@]1(C)CCCC=CCCC[C@@](C)(C(=O)N[C@@H](CCCC)C(=O)N[C@@H](C)C(=O)N[C@@H](CC(C)C)C(=O)N[C@@H](CC(=O)O)C(=O)N[C@@H](CCCNC(=N)N)C(=O)N[C@H](C(N)=O)[C@@H](C)CC)NC(=O)[C@H]([C@@H](C)CC)NC(=O)[C@H](C(C)C)NC(=O)[C@H](CC(C)C)NC1=O [SP-6] (Ac-FIDEEVL[Nle][S5]LVI[S5][Nle]ALDRI-NH2; staple 9-13) | 5 to 15 | – | ++++ (≥50: ++++) | effectively inhibited | down-regulated | ++++ (≥30: ++++) | effectively inhibited tumor growth
CCCC[C@H](NC(=O)[C@H](CC(C)C)NC(=O)[C@@H](NC(=O)[C@H](CCC(=O)O)NC(=O)[C@H](CCC(=O)O)NC(=O)[C@H](CC(=O)O)NC(=O)[C@@H](NC(=O)[C@H](Cc1ccccc1)NC(=O)CCNC(=O)c1ccc2c(c1)C(=O)OC21c2ccc(O)cc2Oc2cc(O)ccc21)[C@@H](C)CC)C(C)C)C(=O)N[C@@]1(C)CCCC=CCCC[C@@](C)(C(=O)N[C@@H](CCCC)C(=O)N[C@@H](C)C(=O)N[C@@H](CC(C)C)C(N)=O)NC(=O)[C@H]([C@@H](C)CC)NC(=O)[C@H](C(C)C)NC(=O)[C@H](CC(C)C)NC1=O [SP-240] ({5FAM-βAla}-FIDEEVL[Nle][S5]LVI[S5][Nle]AL-NH2; staple 9-13) | > 30 | 400 to 700 | +++ (≤25 but <50: +++) | – | – | ++++ (≥30: ++++) | –
CCCC[C@H](NC(=O)[C@H](CCC(=O)O)NC(=O)[C@@H](NC(=O)[C@@H](NC(=O)[C@H](CC(C)C)NC(=O)[C@]1(C)CCCC=CCCC[C@](C)(NC(=O)[C@H](CCC(=O)O)NC(=O)[C@H](CC(=O)O)NC(=O)[C@@H](NC(=O)[C@H](Cc2ccccc2)NC(=O)CCNC(=O)c2ccc3c(c2)C(=O)OC32c3ccc(O)cc3Oc3cc(O)ccc32)[C@@H](C)CC)C(=O)N[C@@H](C(C)C)C(=O)N[C@@H](CC(C)C)C(=O)N[C@@H](CCCC)C(=O)N1)C(C)C)[C@@H](C)CC)C(=O)N[C@@H](C)C(=O)N[C@@H](CC(C)C)C(=O)N[C@@H](CC(=O)O)C(=O)N[C@@H](CCCNC(=N)N)C(=O)N[C@H](C(N)=O)[C@@H](C)CC [SP-131] ({5FAM-βAla}-FIDE[S5]VL[Nle][S5]LVIE[Nle]ALDRI-NH2; staple 5-9) | 15 to 30 | 200 to 400 | ++++ (≥50: ++++) | – | – | ++++ (≥30: ++++) | –

Second part, led by results:

EC50 (HRE-bla ME-180 cells [1]) [µM] | IC50 [6] [nM] | Compound | 18 h Avg % max inhibition at top conc (HIF Rptr-24 hrs normoxia) (μM) (HRE-bla ME-180 cells [1]) | inhibition of known HIF1α targets ANGPTL4, CA9 and ALDOC (gene expression) [2] | protein level of Carbonic anhydrase 9 (CA9) [3] | Viability 1% FBS AVG (MTT V3-24 hr Normoxia) (μM) (HRE-bla ME-180 cells [4]) | tumor growth [5]
5 to 15 | 400 to 700 | CC[C@H](C)[C@H](NC(=O)[C@H](CCCNC(=N)N)NC(=O)[C@H](CC(=O)O)NC(=O)[C@H](CC(C)C)NC(=O)[C@H](C)NC(=O)[C@H](CCSC)NC(=O)[C@]1(C)CCCC=CCCC[C@](C)(NC(=O)[C@H](CCSC)NC(=O)[C@H](CC(C)C)NC(=O)[C@@H](NC(=O)[C@H](CCC(=O)O)NC(=O)[C@H](CCC(=O)O)NC(=O)[C@H](CC(=O)O)NC(=O)[C@@H](NC(=O)[C@H](Cc2ccccc2)NC(C)=O)[C@@H](C)CC)C(C)C)C(=O)N[C@@H](CC(C)C)C(=O)N[C@@H](C(C)C)C(=O)N[C@@H]([C@@H](C)CC)C(=O)N1)C(N)=O [SP-5] (Ac-FIDEEVLM[S5]LVI[S5]MALDRI-NH2; staple 9-13) | ++++ (≥50: ++++) | – | – | ++++ (≥30: ++++) | –
> 30 | 400 to 700 | CCCC[C@H](NC(=O)[C@H](CCC(=O)O)NC(=O)[C@@H](NC(=O)[C@@H](NC(=O)[C@H](CC(C)C)NC(=O)[C@]1(C)CCCC=CCCC[C@](C)(NC(=O)[C@H](CCC(=O)O)NC(=O)[C@H](CC(=O)O)NC(=O)[C@@H](NC(=O)[C@H](Cc2ccccc2)NC(=O)CCNC(=O)c2ccc3c(c2)C(=O)OC32c3ccc(O)cc3Oc3cc(O)ccc32)[C@@H](C)CC)C(=O)N[C@@H](C(C)C)C(=O)N[C@@H](CC(C)C)C(=O)N[C@@H](CCCC)C(=O)N1)C(C)C)[C@@H](C)CC)C(=O)N[C@@H](C)C(=O)N[C@@H](CC(C)C)C(N)=O [SP-130] ({5FAM-βAla}-FIDE[S5]VL[Nle][S5]LVIE[Nle]AL-NH2; staple 5-9) | +++ (≤25 but <50: +++) | – | – | ++++ (≥30: ++++) | –
5 to 15 | 400 to 700 | CCCC[C@H](NC(=O)[C@H](CC(C)C)NC(=O)[C@@H](NC(=O)[C@H](CCC(=O)O)NC(=O)[C@H](CCC(=O)O)NC(=O)[C@H](CC(=O)O)NC(=O)[C@@H](NC(=O)[C@H](Cc1ccccc1)NC(=O)CCNC(=O)c1ccc2c(c1)C(=O)OC21c2ccc(O)cc2Oc2cc(O)ccc21)[C@@H](C)CC)C(C)C)C(=O)N[C@@]1(C)CCCC=CCCC[C@@](C)(C(=O)N[C@@H](CCCC)C(=O)N[C@@H](C)C(=O)N[C@@H](CC(C)C)C(=O)N[C@@H](CC(=O)O)C(=O)N[C@@H](CCCNC(=N)N)C(=O)N[C@H](C(N)=O)[C@@H](C)CC)NC(=O)[C@H]([C@@H](C)CC)NC(=O)[C@H](C(C)C)NC(=O)[C@H](CC(C)C)NC1=O [SP-263] ({5FAM-βAla}-FIDEEVL[Nle][S5]LVI[S5][Nle]ALDRI-NH2; staple 9-13) | ++++ (≥50: ++++) | – | – | ++++ (≥30: ++++) | –
